Reference: PubChem BioAssay AID488969 (Vanderbilt High Throughput Screening Facility, 2010)
Over roughly 110,000 compounds, “z-score” has its median near -0.1; the highest 2% begin near 2. Some of the results follow.

Each compound was assayed against Metabotropic glutamate receptor 8 (Rattus norvegicus) (UniProt P70579) (assay: mGluR8 Gi/Go-coupled signaling modulation – cell-based, rat, thallium flux, HTS, primary screen (AID 488969)). Settings: HEK293 rat mGluR8, GIRK (G protein-gated inwardly rectifying potassium channel) thallium flux, FluoZin2; at 10 µM; stronger effect = higher value; submaximal glutamate (EC20) added with thallium.
Sequence of UniProt P70579 (P70579 whole entry, looked up): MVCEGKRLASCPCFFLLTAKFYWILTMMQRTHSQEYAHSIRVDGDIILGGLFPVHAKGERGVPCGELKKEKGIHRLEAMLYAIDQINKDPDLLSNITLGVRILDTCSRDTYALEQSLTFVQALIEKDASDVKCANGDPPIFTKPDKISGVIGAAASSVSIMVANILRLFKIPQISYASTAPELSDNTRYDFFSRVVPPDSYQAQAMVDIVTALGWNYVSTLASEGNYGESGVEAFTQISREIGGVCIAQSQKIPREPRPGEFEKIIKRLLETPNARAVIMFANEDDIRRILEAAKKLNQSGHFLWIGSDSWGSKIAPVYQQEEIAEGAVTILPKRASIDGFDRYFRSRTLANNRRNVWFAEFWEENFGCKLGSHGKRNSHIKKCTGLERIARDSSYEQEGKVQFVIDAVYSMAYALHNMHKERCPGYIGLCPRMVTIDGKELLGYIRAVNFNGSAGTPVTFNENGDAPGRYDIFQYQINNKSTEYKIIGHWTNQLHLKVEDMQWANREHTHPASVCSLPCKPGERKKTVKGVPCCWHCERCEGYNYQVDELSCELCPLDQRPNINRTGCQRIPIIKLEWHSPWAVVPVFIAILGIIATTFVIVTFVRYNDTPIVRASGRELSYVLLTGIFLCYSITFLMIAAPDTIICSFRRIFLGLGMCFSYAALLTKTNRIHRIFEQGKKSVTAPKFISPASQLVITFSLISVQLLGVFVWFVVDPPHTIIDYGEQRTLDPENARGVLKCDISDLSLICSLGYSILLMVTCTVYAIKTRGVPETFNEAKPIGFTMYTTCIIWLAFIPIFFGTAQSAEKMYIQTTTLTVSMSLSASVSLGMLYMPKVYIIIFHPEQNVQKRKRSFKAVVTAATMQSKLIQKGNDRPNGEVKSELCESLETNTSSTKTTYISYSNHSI

In order of falling z-score:
1. Cc1ccccc1C(=O)NC(=S)Nc1ccccc1C(F)(F)F  1.41
2. O=C(Nn1c(C2CCCCC2)nc2ccccc2c1=O)c1ccc([N+](=O)[O-])cc1  0.823
3. Cc1ccc(Nc2cc(C)nn2-c2nc(C)cc(C)n2)cc1  0.547
4. CC(=O)N1CCC2(CC1)C(C#N)=C(N)Oc1n[nH]c(C(F)(F)F)c12  0.531
5. COc1ccc(-c2cc3nc(C)cc(N)n3n2)cc1  0.483
6. COc1cc(C)c(Cl)cc1S(=O)(=O)NCCN1CCOCC1  0.382
7. O=C(CSc1nc2ccccc2nc1SCC(=O)N1CCOCC1)N1CCOCC1  0.324
8. CCOC(=O)c1ccc(NC(=O)CCS(=O)(=O)c2ccc(Br)s2)cc1  0.3
9. O=c1c2cnn(-c3ccccc3)c2ncn1Cc1ccccc1F  0.298
10. COc1ccc(C(C)=O)cc1CN(C)C  0.27
11. CCC(C)NS(=O)(=O)c1ccc(-c2csnn2)s1 (stereo unspecified)  0.267
12. CC1CCCC(NC(=O)CCn2c(=O)oc3ccccc32)C1C (stereo unspecified)  0.256
13. Cn1cccc1C(=O)C(=O)Nc1ccc(Cl)cc1  0.233
14. O=C(NCCN1CCOCC1)c1cc(S(=O)(=O)NCCCN2CCCC2=O)ccc1Cl  0.23
15. O=C(Oc1ccc([N+](=O)[O-])cc1)c1cc(-c2ccccc2)nc2ccccc12  0.227
16. Cc1nc(SCC(=O)Nc2ccc(F)cc2)c2oc3ccccc3c2n1  0.165
17. Cn1c(CO)cnc1SCc1ccc([N+](=O)[O-])cc1  0.145
18. Cc1cccc(OCCCC(=O)Nc2ccc(Br)cc2)c1  0.1
19. COc1ccc(OCC(=O)Nc2nnc(C)s2)cc1  0.094
20. Cn1c(=O)[nH]c(=O)c2c1nc(SCC(=O)Nc1ccccc1)n2Cc1ccccc1  0.0773
21. COc1cc(OC)cc(C(=O)N2CCN(C(=O)COc3ccc4ccccc4c3)CC2)c1  0.077
22. O=C(c1cc(-c2ccco2)nc2ccccc12)N1CCN(c2ccc(F)cc2)CC1  0.0682
23. CC(C)N(Cc1nc(-c2ccc(Cl)cc2)no1)C(=O)CCC1CCCC1  0.0621
24. CCOC(=O)C1CCN(CCC(=O)Nc2ccccc2)CC1  0.0558
25. CC1CN=C(N(C(=O)Nc2ccccc2)C(C)C)S1 (stereo unspecified)  0.0225
26. CCC(c1nnnn1C1CCCCC1)N1CCN(C2CCCC2)CC1 (stereo unspecified)  0.000677
27. COc1ccc(OC)c(C2=NOC(C(=O)NCc3ccco3)C2)c1 (stereo unspecified)  -0.014
28. COc1ccc(-c2nnn(CC(=O)NCc3ccccc3)n2)cc1OC  -0.0224
29. Cc1cc(C(=O)N2CCN(c3ncccn3)CC2)c2cc(F)ccc2n1  -0.0276
30. COCCn1cc(C(=O)NCc2cccs2)c2c3ccccc3n(C)c2c1=O  -0.0703
31. O=C(O)CCc1nn2cnc3sc4c(c3c2nc1=O)CCCC4  -0.0834
32. COc1ccccc1N=Cc1c(O)c2ccccc2oc1=O  -0.0898
33. CN(C)c1ccnc2sc3c(NCC(O)CO)ncnc3c12 (stereo unspecified)  -0.106
34. O=C(Nc1ccnc(-c2cccnc2)n1)c1ccc(Cl)cc1  -0.11
35. CCOC(=O)C(NC(=O)c1ccc(Cl)cc1Cl)(Nc1ccc(C)cc1)C(F)(F)F (stereo unspecified)  -0.12
36. Cc1nn(C)cc1CNC(=O)Nc1ccc(Br)cc1Cl  -0.126
37. O=C(COc1ccccc1[N+](=O)[O-])N/N=C/C=C/c1ccco1  -0.136
38. COc1ccccc1NC(=S)Nc1cccc2cnccc12  -0.138
39. COc1c(Cl)cc(-c2noc(C)c2C(=O)NCCc2ccc(C)cc2)cc1Cl  -0.149
40. CSCC[C@H](NC(=O)COc1ccc(Cl)cc1)c1nc2ccccc2[nH]1  -0.151
41. CCOc1cc(CNc2ccccc2)cc(Br)c1OCC(=O)NC(C)(C)C  -0.159
42. Cc1sc(NC(=O)Cc2ccc3c(c2)OCO3)nc1-c1ccc2c(c1)CCN2C(=O)c1cccc(F)c1  -0.162
43. O=S(=O)(NCCc1ccccc1)c1cccc2nsnc12  -0.174
44. CC(=O)Nc1ccc(S(=O)(=O)NNC(=O)COc2ccc(C)cc2)cc1  -0.214
45. COc1cc(CSc2ncn[nH]2)c(OC)cc1CSc1ncn[nH]1  -0.214
46. Cc1ccc(-c2nc3ccccc3s2)cc1NC(=O)c1ccc2c(c1)OCO2  -0.221
47. N/C(=N\OC(=O)c1cccc(F)c1)c1ccccc1  -0.224
48. O=C(O)CCN1CC2([N+](=O)[O-])C=CC(=O)C([N+](=O)[O-])(C1)C2CC(=O)c1ccccc1 (stereo unspecified)  -0.227
49. O=C(CCCn1c(=O)[nH]c2cc(Cl)ccc2c1=O)NC1CCCCCCC1  -0.244
50. Cc1ccccc1CSc1ccc(-c2ccc3c(c2)OCO3)nn1  -0.25
51. COc1ccc(-c2nnn(CC(=O)N(Cc3ccccc3Cl)C(C(=O)NCC3CCCO3)c3ccco3)n2)cc1 (stereo unspecified)  -0.253
52. Cc1ccc(NCc2nnc(SCC(=O)Nc3cc(C)on3)n2C)cc1  -0.268
53. Cc1ccc(Sc2nc(-c3ccccc3)nnc2C(F)(F)F)cc1  -0.272
54. CCOC(=O)N1CCC(NS(=O)(=O)c2cc(Br)cnc2N)CC1  -0.28
55. Cc1cccc(N2C(=O)C(Oc3ccc(Cl)cc3Cl)C2C(=O)O)c1C (stereo unspecified)  -0.287
56. COCC(C)NC(=O)c1ccc(Cl)c(Cl)c1 (stereo unspecified)  -0.306
57. Cc1ccc(OCc2nnc(SCC(=O)N3CCc4ccccc43)n2C)cc1  -0.358
58. O=C1c2ccccc2CC1Sc1nnc(-c2ccccn2)o1 (stereo unspecified)  -0.372
59. COc1cc(C(=O)Nc2cccc3cccnc23)cc(OC)c1OC  -0.38
60. CCOc1ccccc1NC(=O)N1CCC(NC(=O)c2cccc(C)c2)CC1  -0.402
61. CCn1c2ccccc2c2cc(/C=N/NC(=O)c3ccccc3C)ccc21  -0.411
62. O=C(Nc1cn(-c2ccccc2)nc1-c1ccccc1)c1ccccc1  -0.43
63. CC(C)N1CC2(c3ccccc3)CN(C(C)C)CC(c3ccccc3)(C1)C2=O  -0.43
64. CSc1nc(C)cc(SC(C(C)=O)C(=O)Nc2ccccc2)n1 (stereo unspecified)  -0.502
65. CCNc1ccc(C(=O)OCC(=O)NC(C)c2ccccc2)cc1[N+](=O)[O-] (stereo unspecified)  -0.503
66. Cc1nnc(NC(=O)c2cccc(F)c2)s1  -0.523
67. Cc1cc(NC(=O)CCC(=O)N(c2ccccc2)C(C(=O)NC2CCCC2)c2cccs2)no1 (stereo unspecified)  -0.619
68. CC(C)CCN(C(=O)Nc1ccccc1)C(C)c1cccs1 (stereo unspecified)  -0.649
69. C=CCOc1c(OC)cc(/C=N/Nc2cccc(C(=O)O)c2)c(Br)c1Br  -0.731
70. COc1cc(-c2ccccc2)nc2ccccc12  -0.949
71. c1ccc2c(c1)CCN(c1nc(CN3CCOCC3)nc3sc4c(c13)CCCC4)C2  -1.03
